According to the supplement of paper PMC8728848:
Some of the results follow.

How the values were obtained:
Assay in all cases: glycan array binding signal (z-score within array); higher = stronger binding
Settings in all cases: glycan notation: IUPAC condensed, linker removed
[1] = target: Neu5Ac(a2-3)Gal(b1-3)GalNAc
Outline: (§1)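 Columns mapping to the same glycan were averaged after glycan names were converted to IUPAC-condensed notation. The data come from 3228 arrays in the Consortium for Functional Glycomics database, limited to those with an available protein sequence. Binding is reported as a within-array Z-score averaged across arrays of one protein sequence and across linkers.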

[2] = target: Neu5Ac(a2-3)Gal(b1-3)GalNAc(b1-3)Gal(a1-4)Gal(b1-4)Glc
Outline: as §1

[3] = target: Neu5Ac(a2-3)Gal(b1-3)GalNAc(b1-4)[Neu5Ac(a2-3)]Gal(b1-4)Glc
Outline: as §1

[4] = target: Neu5Ac(a2-3)Gal(b1-3)GalNAc(b1-4)[Neu5Ac(a2-8)Neu5Ac(a2-3)]Gal(b1-4)Glc
Outline: as §1

[5] = target: Neu5Ac(a2-3)Gal(b1-3)GalNAc6S
Outline: as §1

[6] = target: Neu5Ac(a2-3)Gal(b1-3)GlcNAc
Outline: as §1

[7] = target: Neu5Ac(a2-3)Gal(b1-3)GlcNAc(b1-2)Man
Outline: as §1

[8] = target: Neu5Ac(a2-3)Gal(b1-3)GlcNAc(b1-2)Man(a1-3)[GlcNAc(b1-4)][Neu5Ac(a2-3)Gal(b1-3)GlcNAc(b1-2)Man(a1-6)]Man(b1-4)GlcNAc(b1-4)GlcNAc
Outline: as §1

[9] = target: Neu5Ac(a2-3)Gal(b1-3)GlcNAc(b1-2)Man(a1-3)[Neu5Ac(a2-3)Gal(b1-3)GlcNAc(b1-2)Man(a1-6)]Man(b1-4)GlcNAc(b1-4)GlcNAc
Outline: as §1

[10] = target: Neu5Ac(a2-3)Gal(b1-3)GlcNAc(b1-3)Gal(b1-3)GlcNAc
Outline: as §1

[11] = target: Neu5Ac(a2-3)Gal(b1-3)GlcNAc(b1-3)Gal(b1-4)GlcNAc
Outline: as §1

[12] = target: Neu5Ac(a2-3)Gal(b1-3)GlcNAc(b1-3)GalNAc
Outline: as §1

[13] = target: Neu5Ac(a2-3)Gal(b1-3)GlcNAc(b1-4)Gal(b1-4)Glc
Outline: as §1

[14] = target: Neu5Ac(a2-3)Gal(b1-3)GlcNAc(b1-6)GalNAc
Outline: as §1

[15] = target: Neu5Ac(a2-3)Gal(b1-3)GlcNAc6S
Outline: as §1

[16] = target: Neu5Ac(a2-3)Gal(b1-3)[Fuc(a1-4)]GlcNAc
Outline: as §1

[17] = target: Neu5Ac(a2-3)Gal(b1-3)[Fuc(a1-4)]GlcNAc(b1-3)Gal(b1-3)[Fuc(a1-4)]GlcNAc
Outline: as §1

[18] = target: Neu5Ac(a2-3)Gal(b1-3)[Fuc(a1-4)]GlcNAc(b1-3)Gal(b1-4)[Fuc(a1-3)]GlcNAc
Outline: as §1

[19] = target: Neu5Ac(a2-3)Gal(b1-3)[GlcNAc(b1-6)]GalNAc
Outline: as §1

[20] = target: Neu5Ac(a2-3)Gal(b1-3)[Neu5Ac(a2-6)]GalNAc
Outline: as §1

[21] = target: Neu5Ac(a2-3)Gal(b1-3)[Neu5Ac(a2-6)]GlcNAc(b1-3)[Fuc(a1-3)[Gal(b1-4)]GlcNAc(b1-6)]Gal(b1-4)Glc
Outline: as §1

[22] = target: Neu5Ac(a2-3)Gal(b1-3)]Neu5Ac(a2-3)Gal(b1-4)]GlcNAc
Outline: as §1

Neu5Ac(a2-3)Gal(b1-4)Glc = target: Neu5Ac(a2-3)Gal(b1-4)Glc
Outline: as §1

[23] = target: Neu5Ac(a2-3)Gal(b1-4)GlcNAc
Outline: as §1

[24] = target: Neu5Ac(a2-3)Gal(b1-4)GlcNAc(b1-2)Man
Outline: as §1

[25] = target: Neu5Ac(a2-3)Gal(b1-4)GlcNAc(b1-2)Man(a1-3)[GlcNAc(b1-4)][Neu5Ac(a2-3)Gal(b1-4)GlcNAc(b1-2)Man(a1-6)]Man(b1-4)GlcNAc(b1-4)GlcNAc
Outline: as §1

[26] = target: Neu5Ac(a2-3)Gal(b1-4)GlcNAc(b1-2)Man(a1-3)[Neu5Ac(a2-3)Gal(b1-4)GlcNAc(b1-2)Man(a1-6)]Man(b1-4)GlcNAc(b1-4)GlcNAc
Outline: as §1

[27] = target: Neu5Ac(a2-3)Gal(b1-4)GlcNAc(b1-2)Man(a1-3)[Neu5Ac(a2-3)Gal(b1-4)GlcNAc(b1-2)Man(a1-6)]Man(b1-4)GlcNAc(b1-4)[Fuc(a1-6)]GlcNAc
Outline: as §1

[28] = target: Neu5Ac(a2-3)Gal(b1-4)GlcNAc(b1-2)Man(a1-3)[Neu5Ac(a2-6)Gal(b1-4)GlcNAc(b1-2)Man(a1-6)]Man(b1-4)GlcNAc(b1-4)GlcNAc
Outline: as §1

[29] = target: Neu5Ac(a2-3)Gal(b1-4)GlcNAc(b1-2)[Neu5Ac(a2-3)Gal(b1-4)GlcNAc(b1-4)]Man(a1-3)[GlcNAc(b1-4)][Neu5Ac(a2-3)Gal(b1-4)GlcNAc(b1-2)[Neu5Ac(a2-3)Gal(b1-4)GlcNAc(b1-6)]Man(a1-6)]Man(b1-4)GlcNAc(b1-4)GlcNAc
Outline: as §1

[30] = target: Neu5Ac(a2-3)Gal(b1-4)GlcNAc(b1-2)[Neu5Ac(a2-3)Gal(b1-4)GlcNAc(b1-4)]Man(a1-3)[GlcNAc(b1-4)][Neu5Ac(a2-3)Gal(b1-4)GlcNAc(b1-4)Man(a1-6)]Man(b1-4)GlcNAc(b1-4)GlcNAc
Outline: as §1

[31] = target: Neu5Ac(a2-3)Gal(b1-4)GlcNAc(b1-2)[Neu5Ac(a2-3)Gal(b1-4)GlcNAc(b1-6)]Man(a1-6)[Neu5Ac(a2-3)Gal(b1-4)GlcNAc(b1-2)Man(a1-3)]Man(b1-4)GlcNAc(b1-4)GlcNAc
Outline: as §1

[32] = target: Neu5Ac(a2-3)Gal(b1-4)GlcNAc(b1-2)[Neu5Ac(a2-3)Gal(b1-4)GlcNAc(b1-6)]Man(a1-6)[Neu5Ac(a2-3)Gal(b1-4)GlcNAc(b1-2)Man(a1-3)][GlcNAc(b1-4)]Man(b1-4)GlcNAc(b1-4)GlcNAc
Outline: as §1

[33] = target: Neu5Ac(a2-3)Gal(b1-4)GlcNAc(b1-3)Gal
Outline: as §1

[34] = target: Neu5Ac(a2-3)Gal(b1-4)GlcNAc(b1-3)Gal(b1-3)GlcNAc
Outline: as §1

[35] = target: Neu5Ac(a2-3)Gal(b1-4)GlcNAc(b1-3)Gal(b1-4)GlcNAc
Outline: as §1

[36] = target: Neu5Ac(a2-3)Gal(b1-4)GlcNAc(b1-3)Gal(b1-4)GlcNAc(b1-2)Man(a1-3)[Neu5Ac(a2-3)Gal(b1-4)GlcNAc(b1-3)Gal(b1-4)GlcNAc(b1-2)Man(a1-6)]Man(b1-4)GlcNAc(b1-4)GlcNAc
Outline: as §1

[37] = target: Neu5Ac(a2-3)Gal(b1-4)GlcNAc(b1-3)Gal(b1-4)GlcNAc(b1-3)Gal(b1-4)GlcNAc
Outline: as §1

[38] = target: Neu5Ac(a2-3)Gal(b1-4)GlcNAc(b1-3)Gal(b1-4)GlcNAc(b1-3)Gal(b1-4)GlcNAc(b1-2)Man(a1-3)[Neu5Ac(a2-3)Gal(b1-4)GlcNAc(b1-3)Gal(b1-4)GlcNAc(b1-3)Gal(b1-4)GlcNAc(b1-2)Man(a1-6)]GalNAc
Outline: as §1

[39] = target: Neu5Ac(a2-3)Gal(b1-4)GlcNAc(b1-3)Gal(b1-4)GlcNAc(b1-3)GalNAc
Outline: as §1

[40] = target: Neu5Ac(a2-3)Gal(b1-4)GlcNAc(b1-3)Gal(b1-4)GlcNAc(b1-3)[Neu5Ac(a2-3)Gal(b1-4)GlcNAc(b1-3)Gal(b1-4)GlcNAc(b1-6)]GalNAc
Outline: as §1

[41] = target: Neu5Ac(a2-3)Gal(b1-4)GlcNAc(b1-3)Gal(b1-4)GlcNAc(b1-6)[Gal(b1-3)]GalNAc
Outline: as §1

[42] = target: Neu5Ac(a2-3)Gal(b1-4)GlcNAc(b1-3)Gal(b1-4)[Fuc(a1-3)]GlcNAc
Outline: as §1

[43] = target: Neu5Ac(a2-3)Gal(b1-4)GlcNAc(b1-3)GalNAc
Outline: as §1

[44] = target: Neu5Ac(a2-3)Gal(b1-4)GlcNAc(b1-3)[Neu5Ac(a2-3)Gal(b1-4)GlcNAc(b1-6)]GalNAc
Outline: as §1

B1: PX14375F-bfa-539-21-539 (Bacteroides fragilis) (protein)
chain: EDFLQKDPPSSPSQSVFWQKKSDFESALAGTYSVMYSGVFSQIMPCLDGLTDNAIVQHSEGTYGWAKTIAQGDLTPNQGGFVTDIYGNCYKGIARVHILMEQLDQYTGSDISADEKKFMLAQCKALRGYFYSWLYQCYKEVPVVTQSLDLNTMYQPKATRAEVLNRVMTDYDEAISELPDKLYSDSQTSGRFTVSAVKALKARILLFDAYDSNGKAISSKMEEVLTLLQSIKGYSLAARVRDNFISEKQLASPEIMFSVRFLRPNLTHSMDLYYGAWAVLDPTRNMVDAFECTDGKPWGESPLTVRPDESILYGNDDALKKAERAKMFMNRDRRLYESVNHSMMANFVDDGFKDEEVQVNESNNKGPTGFSALKYVQPTDVTPGYSTVSDADIVVLRYAHVLLMIAEAENEAHGATTTALNAINEVRTRSGQPAIEAGISQDDLRERIRNEWRIETCFEGLRYFQLKRWKLMDKRVNGVEDPAYPGYIKVYKPAFEFFPIPQSEIDKAGGVLKQDPAYE
[1]
  glycan array binding signal (z-score): -0.199
[2]
  glycan array binding signal (z-score): -0.715
[3]
  glycan array binding signal (z-score): 0.409
[4]
  glycan array binding signal (z-score): -0.099
[5]
  glycan array binding signal (z-score): -0.73
[6]
  glycan array binding signal (z-score): -0.665
[7]
  glycan array binding signal (z-score): 0.584
[8]
  glycan array binding signal (z-score): -0.276
[9]
  glycan array binding signal (z-score): -0.682
[10]
  glycan array binding signal (z-score): -0.815
[11]
  glycan array binding signal (z-score): -0.567
[12]
  glycan array binding signal (z-score): -0.172
[13]
  glycan array binding signal (z-score): -0.468
[14]
  glycan array binding signal (z-score): -0.238
[15]
  glycan array binding signal (z-score): 1.15
[16]
  glycan array binding signal (z-score): -1.04
[17]
  glycan array binding signal (z-score): -0.334
[18]
  glycan array binding signal (z-score): 0.552
[19]
  glycan array binding signal (z-score): -0.411
[20]
  glycan array binding signal (z-score): -0.139
[21]
  glycan array binding signal (z-score): -0.546
[22]
  glycan array binding signal (z-score): -0.1
Neu5Ac(a2-3)Gal(b1-4)Glc
  glycan array binding signal (z-score): -0.114
[23]
  glycan array binding signal (z-score): -0.265
[24]
  glycan array binding signal (z-score): 0.787
[25]
  glycan array binding signal (z-score): 0.245
[26]
  glycan array binding signal (z-score): 0.744
[27]
  glycan array binding signal (z-score): -0.236
[28]
  glycan array binding signal (z-score): -0.279
[29]
  glycan array binding signal (z-score): -0.402
[30]
  glycan array binding signal (z-score): -0.731
[31]
  glycan array binding signal (z-score): 1.17
[32]
  glycan array binding signal (z-score): -0.623
[33]
  glycan array binding signal (z-score): -0.184
[34]
  glycan array binding signal (z-score): -0.383
[35]
  glycan array binding signal (z-score): -0.491
[36]
  glycan array binding signal (z-score): 0.396
[37]
  glycan array binding signal (z-score): -0.873
[38]
  glycan array binding signal (z-score): 4.15
[39]
  glycan array binding signal (z-score): 0.03
[40]
  glycan array binding signal (z-score): -0.526
[41]
  glycan array binding signal (z-score): -0.412
[42]
  glycan array binding signal (z-score): -0.249
[43]
  glycan array binding signal (z-score): 0.216
[44]
  glycan array binding signal (z-score): -0.205
